Laboratory results from PubChem BioAssay AID445 (National Center for Advancing Translational Sciences (NCATS), 2006).
Screen size: about 110,000 compounds; about 40 (0.04%) were called active. Inconclusive means that the source gave no clear call. Such entries were picked first, then a sample of the others. Calls follow the shape of the dose curve; as a rule, active = well fitted curve in the direction sought with a large enough effect in the signal ratio (not every such curve was filed as active); inconclusive = small, poorly fitted or top-dose-only effect, or a change in a side signal; inactive = flat fitted curve, though single readings scatter; the % refers to the signal ratio. Where the call is inconclusive, the potency comes from a doubtful curve fit.

Assay: IkB Signaling;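 as to IkBa stabilization activation: 0% = basal untreated cells and 100% = reference inhibitor full response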
Details: ABC-DLBCL IkBa-CBG/CBR dual luciferase ratio (green luciferase fused to IkBa over red control in OCI-Ly3 lymphoma cells), 4 h; IkBa stabilization activation: at 57.1 µM (top of the series), scaled: untreated 0%, proteasome inhibitor 100% unless noted
In short: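 Curves were fitted separately to fusion (green), unfused (red) and ratio luminescence, then classed by r2, magnitude and activity. Cells: OCI-Ly3, 4 h compound plus doxycycline at 37C; 10 uM MG-132 defined full response.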
Potency is read from the fitted curve at half-maximal effect.

SMILES | IkBa stabilization activation | Potency
COc1ccccc1CNc1nc2ccccc2c2nc(-c3cccnc3)nn12 | inconclusive: 0.743% [signal inhibitor] | 
COCCCNC(=O)c1cnn(-c2ccccc2Cl)c1C1CCN(C(=O)OC(C)(C)C)CC1 | inconclusive: -1.11% [signal inhibitor] | 
CCc1ccc(CNc2ccc(N3CCN(C(C)=O)CC3)cc2)cc1 | inconclusive: 2.95% [signal inhibitor] | 
CCCOc1nc2c(c(=O)n(C)c(=O)n2C)n1Cc1cccc2ccccc12 | inactive: -0.078% | 
COc1ccc(CNC(=O)C2CCN(C(=O)c3ccc(-n4ccc5ccccc54)s3)CC2)cc1 | inconclusive: 11.5% [signal inhibitor] | 
COC(=O)c1ccc(NC(=O)CSc2cn(CC(=O)N3CCCCCC3)c3ccccc23)cc1 | inconclusive: -2.03% [signal inhibitor] | 
COc1cccc(NC(=O)C2CCCN(c3nnc(-n4c(C)ccc4C)s3)C2)c1 (centres undefined) | inconclusive: 3.06% [signal inhibitor] | 
Cc1ccccc1OCC(=O)Nc1ccc2nc(SCC(=O)N(C)c3ccccc3)sc2c1 | inconclusive: 2.49% [signal inhibitor] | 
CC(C)(C)OC(=O)N1CCC(c2c(C(=O)N3CCN(c4ccc(Cl)cc4)CC3)cnn2-c2ccc(F)cc2F)CC1 | inconclusive: 1.64% [signal inhibitor] | 
CCN1CC=C2C(C#N)=C(N)C(C#N)(C#N)C(c3cc(Cl)ccc3Cl)C2C1 (centres undefined) | inconclusive: 13.1% [signal inhibitor] | 
COC(=O)CSc1ncccc1-c1nc2ccccc2[nH]1 |  | inconclusive: 10 µM [signal inhibitor, partial curve]
COc1ccc(Cl)cc1NC(=O)c1cc2ccc3ccc(C)[nH]c3c2n1 | inconclusive: -1.04% [signal inhibitor] | 
C=CCn1c(SCC(=O)Nc2sccc2C(N)=O)nc2sc(C)c(C)c2c1=O | inactive: 0.418% | 
Cc1ccc(Cn2c(CNS(=O)(=O)c3ccc(C(C)(C)C)cc3)nc3cccnc32)cc1 | inconclusive: 0.334% [signal inhibitor] | 
CCc1ccc(NC(=O)CSc2c(C)cnc3c2c(=O)n(C)c(=O)n3C)cc1 | inactive: 4% | 
O=C(c1cc(-c2ccc(Cl)cc2)on1)N(Cc1cccc(F)c1)Cc1ccco1 | inconclusive: -1.81% [signal inhibitor] | 
C[C@H](Cc1ccc(O)c(O)c1)[C@@H](C)Cc1ccc(O)c(O)c1 | inactive | 
Cc1ccc(NS(=O)(=O)c2ccc(NC(=O)c3ccc(Br)o3)cc2)c(C)c1 | inconclusive: -4.94% [signal inhibitor] | 
Nc1c(C(=O)NCCN2CCOCC2)c2nc3ccccc3nc2n1-c1cccc(F)c1 | inactive: -0.617% | 
COC(=O)c1cc(=O)[nH]c(=O)[nH]1 | inactive: 0.608% [at 11.4 µM, scaled: untreated 0%, proteasome inhibitor 100%] | 
CCSc1ncc(Cl)c(C(=O)Nc2ccc(S(=O)(=O)N(C)c3ccccc3)cc2)n1 | inactive: -0.698% | 
O=C(NCCc1ccccc1)c1cnn(-c2ccc(F)cc2)c1-n1cccc1 | inconclusive: 0.0402% [signal inhibitor] | 

SMILES | IkBa stabilization activation | Potency
CCOC(=O)N1CCc2c(sc3c2c(=O)n(CCc2ccccc2)c(=O)n3Cc2c(F)cccc2Cl)C1 | inconclusive: 0.435% [signal inhibitor] | 
CCc1ccc(CNC(=O)CN2CCSc3ccccc32)cc1 | inconclusive: 3.54% [signal inhibitor] | 
CCOC(=O)C1CCCN(c2ncnc3c2cnn3-c2cccc(C)c2)C1 (centres undefined) | inactive: 1.34% | 
Cc1ccc(NC(=O)CSc2nc3n[nH]c(C)c3c(=N)n2-c2cccc(C)c2)cc1 | inconclusive: 3.5% [signal inhibitor] | 
CC1=C(C(=O)OCC2CCCO2)C(c2ccccc2OC(C)C)C2=C(CC(c3ccco3)CC2=O)N1 (centres undefined) | inconclusive: 16.5% [signal inhibitor] | 
COc1ccc(N2CCN(c3oc(/C=C/c4cc(OC)c(OC)c(OC)c4)nc3C#N)CC2)cc1 | inconclusive: -0.687% [signal inhibitor] | 
CCCN(CCC)c1nc2ccccc2n2c(C)nnc12 | inactive: -4.47% | 
CCOC(=O)c1ccccc1NC(=O)N(C)CCc1c(C)nn(CC)c1C | inactive: -0.442% | 
Cc1cc(C)cc(Oc2nc3c(c(=O)n(C)c(=O)n3C)n2Cc2ccc(F)cc2)c1 | inconclusive: 5.79% [signal inhibitor] | 
COc1ccc(F)cc1S(=O)(=O)NCCc1sc2nc(-c3ccc(F)cc3)nn2c1C | inconclusive: 0.998% [signal inhibitor] | 
O[C@@H]1[C@@H]2c3cc4c(cc3CN3CCC(=C[C@@H]1O)[C@H]23)OCO4 |  | inconclusive: 2.51 µM [rising, full curve]
O=S(=O)(NCc1cn2ccsc2n1)c1ccc(Oc2ccccc2)cc1 | inconclusive: 8.67% [signal inhibitor] | 
Cc1cc(OCC(=O)N(Cc2sccc2C)C2CCS(=O)(=O)C2)ccc1Cl (centres undefined) |  | inconclusive: 15.8 µM [signal inhibitor, partial curve]
CCc1cccc(C)c1NC(=O)CSc1nnc(CC)n2c1cc1occc12 | inactive: -0.325% | 
Cc1cc(C)c2c(CC(=O)Nc3c(C(=O)Nc4ccc(Cl)cc4)oc4ccccc34)coc2c1 | inconclusive: 5.19% [signal inhibitor] | 
CC(C)COc1ccc(C(=O)CCN2CCCCC2)cc1 | inconclusive: 17.6% [signal inhibitor] | 
CCOc1ccc(-c2nnc(SCc3nnc(-c4ccccc4)o3)n2-c2ccccc2F)cc1 | inconclusive: 5.39% [signal inhibitor] | 
CCOC(=O)C1CCCN(c2nc3c(S(=O)(=O)c4ccc(C)c(C)c4)nnn3c3ccc(Cl)cc23)C1 (centres undefined) | inactive: -2.43% | 
Cc1ccc(Cl)cc1N1CCN(c2ncnc3onc(C)c23)CC1 | inconclusive: 0.55% [signal inhibitor] | 
CCOc1ccc(NC(=O)c2nccnc2CO)cc1 |  | inconclusive: 20 µM [signal inhibitor, partial curve]
O=C(CSCc1ccccc1)N1CCN(c2ccc(F)cc2)CC1 | inactive: -1.11% | 
CCOC(=O)C1CCCN(S(=O)(=O)c2cn(C)c(=O)n(C)c2=O)C1 (centres undefined) | inactive: 1.9% | 
